# Reference: article PMC11546610, “Molecular Modeling and In Vitro Functional Analysis of the RGS12 PDZ Domain Variant Associated with High-Penetrance Familial Bipolar Disorder” (International Journal of Molecular Sciences, 2024)
# Results are given in words; binding and its absence hold for the method and conditions named. Some entries that bind do so weakly or less than the wild type.
# T1: CXCR2 C-terminal peptide, biotin-NH-…-carboxylic acid
# T1 sequence (peptide, biotin on the N-terminus (biotin-NH-); C-terminal carboxylic acid): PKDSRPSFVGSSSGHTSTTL
# T2: SAPAP3 mutant (mt) C-terminal peptide, biotin-NH-…-amide (human)
# T2 sequence (peptide, biotin on the N-terminus (biotin-NH-); C-terminal amide): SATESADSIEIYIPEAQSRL
# T3: SAPAP3 wt C-terminal peptide (aa 960-979), biotin-NH-…-carboxylic acid (human)
# T3 sequence (peptide, biotin on the N-terminus (biotin-NH-); C-terminal carboxylic acid): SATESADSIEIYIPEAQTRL
# T4: mNotch1 C-terminal peptide, biotin-NH-…-carboxylic acid (mouse)
# T4 sequence (peptide, biotin on the N-terminus (biotin-NH-); C-terminal carboxylic acid): PSQITHIPEAFK
# Key:
# Assay in all cases: SPR; Biacore 3000; biotinylated peptides immobilised on streptavidin chips to 350 RU; RGS12 PDZ domain protein as analyte (10 nM to 500 μM; 300 μM in Figure 5D), 10 μL/min; 10 mM HEPES pH 7.4, 250 mM NaCl, 0.05% Nonidet P-40, 50 μM EDTA; mNotch1 peptide surface subtracted; both purified
# [1] = target: T1, CXCR2 C-terminal peptide, biotin-NH-…-carboxylic acid
# [2] = target: T2, SAPAP3 mutant (mt) C-terminal peptide, biotin-NH-…-amide (human)
# [3] = target: T3, SAPAP3 wt C-terminal peptide (aa 960-979), biotin-NH-…-carboxylic acid (human)
# [4] = target: T4, mNotch1 C-terminal peptide, biotin-NH-…-carboxylic acid (mouse)
binder,measurement,setting,value
"Recombinant RGS12 PDZ domain protein (Biacore analyte, as in ref. 65) (domain or fragment, UniProt O08774 21-97) SVEVARGRAGYGFTLSGQAPCVLSCVMRGSPADFVGLRAGDQILAINEINVKKASHEDVVKLIGKCSGVLRMVISEG",binding,[1],binds
same,binding,[2],no binding (tested: 300 μM)
same,binding,[3],binds
same,binding,[4],no binding (tested: 500 μM)
